This is an account of results in patent US20080044419A1, “Treatment of T Cell Mediated Diseases by Inhibition of Fgfr3” (Fibron Ltd., priority 2003, published 2008).

For the assay, the target named is FGFR3 (Homo sapiens, UniProt P22607). In words: FDCP-FGFR3 proliferation assay performed with FGF9. The format is cell-based. Conditions: dimeric dHLX format.
Sequence of FGFR3 (P22607 23-806): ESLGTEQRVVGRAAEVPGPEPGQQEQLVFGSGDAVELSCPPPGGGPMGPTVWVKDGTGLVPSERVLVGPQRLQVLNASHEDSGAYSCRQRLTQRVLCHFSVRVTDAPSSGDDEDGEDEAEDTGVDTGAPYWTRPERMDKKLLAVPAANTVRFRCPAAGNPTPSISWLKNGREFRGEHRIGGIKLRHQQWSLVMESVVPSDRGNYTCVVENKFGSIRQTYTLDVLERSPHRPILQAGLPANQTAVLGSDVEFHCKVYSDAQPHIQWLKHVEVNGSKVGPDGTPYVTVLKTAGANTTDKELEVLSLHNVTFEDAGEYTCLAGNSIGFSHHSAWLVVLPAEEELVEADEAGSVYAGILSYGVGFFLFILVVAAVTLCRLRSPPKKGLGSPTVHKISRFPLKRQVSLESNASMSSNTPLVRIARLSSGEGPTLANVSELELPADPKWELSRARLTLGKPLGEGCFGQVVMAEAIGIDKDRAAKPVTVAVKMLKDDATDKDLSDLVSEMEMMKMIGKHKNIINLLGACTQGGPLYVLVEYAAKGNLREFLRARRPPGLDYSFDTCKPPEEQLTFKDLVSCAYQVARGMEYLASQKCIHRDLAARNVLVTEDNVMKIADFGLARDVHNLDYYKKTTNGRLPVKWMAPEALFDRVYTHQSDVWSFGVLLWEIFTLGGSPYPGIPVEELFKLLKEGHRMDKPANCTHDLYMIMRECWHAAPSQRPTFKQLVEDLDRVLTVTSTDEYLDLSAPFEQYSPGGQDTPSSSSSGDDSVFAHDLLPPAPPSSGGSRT

B1: PRO-024: HuCAL clone anti-FGFR3 antibody; VH-CDR3 SEQ ID NO:5, VL-CDR3 SEQ ID NO:14 (antibody, V domains shown)
VH: QVQLVQSGAEVKKPGSSVKVSCKASGGTFSSYAISWVRQAPGQGLEWMGGIIPIFGTANYAQKFQGRVTITADESTSTAYMELSSLRSEDTAVYYCARVNHWTYTFDYWGQGTLVTVSS
VL: DIVLTQSPATLSLSPGERATLSCRASQSVSSSYLAWYQQKPGQAPRLLIYGASSRATGVPARFSGSGSGTDFTLTISSLEPEDFATYYCQQMSNYPDTFGQGTKVEIKRT
The term IC50 denotes the midpoint of a concentration-inhibition curve. A high value points to a need for much substance. Molecule B1 had a 50% inhibitory concentration (IC50) of 70 nM. That is a double-digit nanomolar value.
